Hit rate of the full screen: of about 48,000 compounds, about 550 (1.1%) were called active. Inconclusive results (about 4%) are left out. No stated cut-off is given here; in the data, active means potency below about 15 µM; inconclusive means mostly about 16 µM to 33 µM; inactive means weaker than that. This is one part of the list.
target: Lysosomal acid glucosylceramidase (Homo sapiens) (UniProt P04062); experiment: Glucocerebrosidase; conditions: purified enzyme, resorufin glucoside fluorescence (screen aimed at inhibitors), 20 min;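 further: the screen sought inhibitors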
Procedure, shortened: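 Compounds titrated against 0.2 nM normal enzyme, 30 uM resorufin beta-D-glucopyranoside substrate, citrate/phosphate buffer with taurocholate and tween-20, pH 5.9. Reaction ran 20 min at room temperature; fluorescence (Ex 548/Em 600) gave AC50.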
Potency means the concentration at half of the fitted maximal effect.

Chain of UniProt P04062 (P04062 whole entry, looked up): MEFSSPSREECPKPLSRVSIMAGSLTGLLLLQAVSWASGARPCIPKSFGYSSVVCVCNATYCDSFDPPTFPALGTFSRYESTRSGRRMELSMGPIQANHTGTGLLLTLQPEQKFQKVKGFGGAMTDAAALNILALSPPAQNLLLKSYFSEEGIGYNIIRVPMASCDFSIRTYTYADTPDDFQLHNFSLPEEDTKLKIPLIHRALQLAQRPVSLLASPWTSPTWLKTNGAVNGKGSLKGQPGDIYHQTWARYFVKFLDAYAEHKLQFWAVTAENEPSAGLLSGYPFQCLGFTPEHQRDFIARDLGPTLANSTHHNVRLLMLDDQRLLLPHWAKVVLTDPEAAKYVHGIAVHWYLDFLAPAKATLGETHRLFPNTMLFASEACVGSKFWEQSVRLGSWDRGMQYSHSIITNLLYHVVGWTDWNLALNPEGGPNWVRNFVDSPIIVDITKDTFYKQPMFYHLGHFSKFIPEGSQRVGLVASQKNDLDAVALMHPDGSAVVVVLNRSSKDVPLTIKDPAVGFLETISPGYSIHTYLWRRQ

Potency, inactive:
COc1cc(OC)cc(C(=O)NC(C(=O)NCCN(C)C)C23CC4CC(CC(C4)C2)C3)c1 (centres undefined) > 76.9 µM
CC(C)CC(NC(=O)C(NC(=O)OC(C)(C)C)C(C)C)C(=O)N1CCCC1C(N)=O (centres undefined) > 76.9 µM
CC1=C(C(=O)OCC(C)C)C23C(=O)c4ccccc4C2(O1)OC(N)=C3C#N (centres undefined) > 76.9 µM
Cc1nn(Cc2ccc(F)cc2)c(C)c1NC(=O)c1noc2c1CCCCC2 > 76.9 µM
CCS(=O)(=O)N1CCC(C(=O)NCc2cccnc2)CC1 > 76.9 µM
COc1ccc(OC)c(-n2cnnn2)c1 > 76.9 µM
c1ccc(C(c2nnnn2Cc2ccco2)N2CCN(C3CCCC3)CC2)cc1 (centres undefined) > 76.9 µM
COc1ccc(OC)c(S(=O)(=O)N(C)CC(=O)N2CCN(c3ccc(F)cc3)CC2)c1 > 76.9 µM
CC(C)Cn1c(N)c(S(=O)(=O)c2cccs2)c2nc3ccccc3nc21 > 76.9 µM
c1cc(CNC2=NCCCCC2)ccn1 > 76.9 µM
Cn1c(=NC(=O)CSCC(=O)N2CCCCC2)sc2ccccc21 > 76.9 µM
CCOC(=O)N1CCN(C(=O)Cc2ccc(C)cc2)CC1 > 76.9 µM
Cc1ccc(-c2csc3nnc(SCC(=O)Nc4cccc(C)n4)n23)cc1 > 76.9 µM
COC(=O)C(C#N)c1nc2ccccc2nc1N1CCCC1 (centres undefined) > 76.9 µM
O=c1c2ccccc2oc2ncccc12 > 76.9 µM
CCOc1ccc2oc(-c3ccccc3)c(C(=O)O)c2c1 > 76.9 µM
Cc1c(NC(=O)NCc2ccccc2)c(=O)n(-c2ccccc2)n1C > 76.9 µM
COc1ccc(-c2nc3ccccc3c(=O)n2CCN2CCOCC2)cc1 > 76.9 µM
CN(C)P(=NC(=O)COc1ccc(Cl)cc1Cl)(N(C)C)N(C)C > 76.9 µM
O=c1c2ccccc2nc2c3ccccc3c3nncn3n12 > 76.9 µM
Fc1ccc(C2CC(c3ccccc3)n3ncnc3N2)cc1 (centres undefined) > 76.9 µM
COC(=O)C1=C(N)Oc2cc(C)n(Cc3cccnc3)c(=O)c2C1c1ccc(OC)c(OC)c1 (centres undefined) > 76.9 µM
Cc1c(NCc2nc3ccccc3[nH]2)c(=O)n(-c2ccccc2)n1C > 76.9 µM
COc1ccc(N2CCN(c3oc(-c4ccc(OC)c(OC)c4)nc3C#N)CC2)cc1 > 76.9 µM
Cc1ccc(NC(=O)CSc2nnc(COc3ccc(C#N)cc3)n2-c2ccccc2)cc1C > 76.9 µM
O=C(CSc1ncnc2c1oc1ccccc12)Nc1ccc2c(c1)OCCO2
Cc1cc(NC(=O)CSc2nccn2-c2ccc(Cl)cc2)no1 > 76.9 µM
c1ccc2c(c1)OCC(c1nn3cnnc3s1)O2 (centres undefined) > 76.9 µM
Cn1nnnc1Sc1nc(-c2cccnc2)nc2ccccc12 > 76.9 µM
CCC1C(=O)N=C(SCC(=O)Nc2ccc(C(=O)OC)cc2)NC1=O (centres undefined) > 76.9 µM
O=C(COC(=O)C1CCCN1C(=O)c1cccs1)Nc1ccc2c(c1)OCO2 (centres undefined) > 76.9 µM
CCc1c(C)sc(NC(=O)c2cc(-c3ccco3)on2)c1C#N > 76.9 µM
O=C(NCc1cccs1)c1noc2c1CCCCC2 > 76.9 µM
C=CCC(O)(CCN1CCCCC1)c1ccccc1 (centres undefined) > 76.9 µM
COc1ccc(N2C(=O)CC(N3CCN(c4nc5ccccc5s4)CC3)C2=O)cc1 (centres undefined) > 76.9 µM
COc1ccccc1-c1cc(C(F)(F)F)nc(S(=O)(=O)CCCC(=O)N2CCOCC2)n1 > 76.9 µM
CC1Oc2ccccc2N(CC(=O)NCCc2ccccc2)C1=O (centres undefined) > 76.9 µM
Cc1ccc(-n2ncc3c(=O)n(CC#N)cnc32)cc1C > 76.9 µM
COc1ccc(S(=O)(=O)Nc2ccc(Cl)cn2)c(C)c1C > 76.9 µM
Cc1cc(C)n2cc(CSc3nnnn3-c3ccccc3)nc2n1 > 76.9 µM
CCOC(=O)N1CCN(C(=O)c2ccc(-n3c(=S)[nH]c4ccccc4c3=O)cc2)CC1 > 76.9 µM
Cc1cc(C)c(C)c(S(=O)(=O)NCc2ccco2)c1C > 76.9 µM
Cc1cc(N2C(=O)C(=O)/C(=C(/O)c3ccc(F)cc3)C2c2ccc(Cl)cc2)no1 (centres undefined) > 76.9 µM
Cc1ccc(NC(=O)N2CCC(C(=O)NCCC3=CCCCC3)CC2)cc1 > 76.9 µM
CCn1c(NCc2ccco2)nc2c1c(=O)n(C)c(=O)n2C > 76.9 µM
CCOC(=O)c1ccc(N2C(=O)C(O)=C(C(C)=O)C2c2ccc(O)c(OC)c2)cc1 (centres undefined) > 76.9 µM
CC(C)CCNC(=O)NC(=O)COC(=O)C1=COCCO1 > 76.9 µM
COc1ccc2[nH]c(O)c(NC(C)=O)c2c1 > 76.9 µM
Cc1c(NC(=O)CSc2nncc3ccccc23)c(=O)n(-c2ccccc2)n1C > 76.9 µM
CC(=O)c1ccc(NC(=O)Cn2nc(C)cc2C)cc1 > 76.9 µM
CCCC(=O)c1ccc(N2CCN(C(=O)OCC)CC2)c(F)c1 > 76.9 µM
Cc1ccccc1N1CCN(Cc2cccc(C(=O)O)c2)CC1 > 76.9 µM
c1cncc(CNc2c3c(nc4nnnn24)CCCC3)c1 > 76.9 µM
COc1cc(C(=O)OC(C)CN2CCOCC2)cc(OC)c1OC (centres undefined) > 76.9 µM
CCOc1cccc(OCCCCN2CCCCC2)c1 > 76.9 µM
Cc1cccc2sc(NC(=O)CN(C)S(=O)(=O)c3cccs3)nc12 > 76.9 µM
COc1ccc(OC)c(C(c2nnnn2C2CCCC2)N2CCc3ccccc3C2)c1 (centres undefined)
COc1ccc(S(=O)(=O)N2CCCCC2)cc1Br > 76.9 µM

Potency, active:
c1nc(NCCN2CCOCC2)c2c3c(sc2n1)CCCCC3 7.49 µM
